Data: PubChem BioAssay AID1468 (National Center for Advancing Translational Sciences (NCATS), 2008)
Among all 280,000 compounds or so, about 1,100 (0.39%) were called active. The shares of active, inactive and inconclusive entries below differ from those in the screen. The call rests on the fitted dose curve; in most records, active means well fitted inhibition curve with a large enough effect; inconclusive means small, poorly fitted or top-dose-only effect, or effect the other way; inactive means flat fitted curve, though single readings scatter. No potency is given beside an inconclusive call; the fits are too rough.
Further: nearly all actives have a fitted effect of over 55% in size.
Potency means the concentration at half of the fitted maximal effect; tags describe the fitted curve by direction and shape.

The compounds below were run against Microtubule-associated protein tau (Homo sapiens) (UniProt P10636) (assay: qHTS for Inhibitors of Tau Fibril Formation, Fluorescence Polarization). Details: K18 P301L tau heparin fibrillization, Alexa594 FP, 6 h; series mostly up to 57.7 µM.
Sequence of UniProt P10636 (P10636 whole entry, looked up): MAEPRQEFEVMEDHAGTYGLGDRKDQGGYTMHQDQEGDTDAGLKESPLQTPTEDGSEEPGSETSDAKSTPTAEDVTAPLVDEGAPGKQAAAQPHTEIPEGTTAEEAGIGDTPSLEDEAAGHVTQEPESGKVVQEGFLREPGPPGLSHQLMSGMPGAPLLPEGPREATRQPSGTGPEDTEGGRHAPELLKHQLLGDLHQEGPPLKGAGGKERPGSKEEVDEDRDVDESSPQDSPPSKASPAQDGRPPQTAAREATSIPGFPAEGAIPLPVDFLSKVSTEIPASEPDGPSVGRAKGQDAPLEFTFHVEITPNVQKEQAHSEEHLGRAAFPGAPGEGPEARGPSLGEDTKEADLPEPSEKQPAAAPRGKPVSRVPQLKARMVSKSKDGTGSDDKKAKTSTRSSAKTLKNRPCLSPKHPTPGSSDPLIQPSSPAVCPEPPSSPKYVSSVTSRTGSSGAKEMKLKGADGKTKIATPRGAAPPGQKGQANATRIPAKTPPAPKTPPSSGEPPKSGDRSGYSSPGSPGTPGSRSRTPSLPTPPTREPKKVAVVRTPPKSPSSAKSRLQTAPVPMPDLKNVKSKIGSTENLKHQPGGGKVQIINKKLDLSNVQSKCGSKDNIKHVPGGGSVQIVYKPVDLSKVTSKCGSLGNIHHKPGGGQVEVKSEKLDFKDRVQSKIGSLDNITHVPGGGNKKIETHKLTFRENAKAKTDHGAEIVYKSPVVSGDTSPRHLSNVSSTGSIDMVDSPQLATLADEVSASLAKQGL
Procedure, shortened: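 Quantitative HTS format: compounds meet 15 uM recombinant K18 P301L tau and Alexa 594-tau tracer in 100 mM sodium acetate pH 7; 20 uM heparin triggers fibrillization at 37 C over 6 hr; FP gives the signal.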
For `COc1ccccc1-c1cn[nH]c1-c1ccc(OCc2ccc(F)cc2)cc1O`, the Potency was inconclusive [inhibitor, single point]. With `Cc1cccc(NC(=O)c2nc[nH]c2C(=O)Nc2cccc(C)c2)c1` the Potency was inconclusive [inhibitor, full curve]. With `O=C(Nc1ccc(OC(F)F)c(Cl)c1)C(c1ccccc1)c1ccccc1` the Potency was active: 28.2 µM. For `CCN(c1ccccc1C)S(=O)(=O)c1nnc(NC(=O)c2ccc(OC)c(OC)c2)s1`, the Potency was “inactive”. For `O=C(CSc1ncnc2ccccc12)NCc1ccc2c(c1)OCO2`, the Potency was “inactive”. In the case of `Cc1ccc2[nH]c3c(c2c1)CN(C(=O)CN1CC(C)OC(C)C1)CC3` (centres undefined), the Potency is reported as “inactive”. For `O=C(NCCc1ccccc1)c1ccc2c(c1)N(Cc1ccc(Cl)cc1)C(=O)c1ccccc1S2(=O)=O`, the Potency was inconclusive [inhibitor, partial curve]. In the case of `O=C(/C=C/c1ccc(O)cc1)c1ccc(NC2=C(N3CCCCC3)C(=O)c3ccccc3C2=O)cc1`, the Potency is reported as inconclusive [inhibitor, partial curve]. In the case of `COc1cccc(C(c2nnnn2CCc2ccccc2)N2CCN(c3ccccc3)CC2)c1OC` (centres undefined), the Potency is reported as inconclusive [activator, single point]. In the case of `Cc1ccc(NC(=O)c2c(NC(=O)CCC(=O)O)sc3c2CCCCC3)cc1`, the Potency is reported as inconclusive [inhibitor, partial curve]. For `CCOC(=O)c1ccc(CN(Cc2ccccc2)S(=O)(=O)c2cccc([N+](=O)[O-])c2)cc1`, the Potency was inconclusive [activator, single point]. In the case of `CCOc1ccc(NC(=O)NCCN2CCN(c3cc(Cl)ccc3C)CC2)cc1`, the Potency is reported as inconclusive [activator, partial curve, poor fit]. `COc1cc(CNc2ccc(O)cc2)cc(Br)c1OCc1ccccc1` was tested, and the Potency was inconclusive [inhibitor, single point]. `O=C(NCCc1ccccc1)c1c[nH]c2ccc(S(=O)(=O)Nc3ccc(F)cc3F)cc2c1=O` was tested, and the Potency was inconclusive [inhibitor, partial curve]. With `C[C@@]12CCC3c4ccc(OS(=O)(=O)O)cc4CCC3C1CCC2O` (some centres undefined) the Potency was “inactive”. In the case of `COc1ccc(NC(=O)CN(C)CC(=O)Nc2cccc(S(=O)(=O)N(C)c3ccccc3)c2)cc1`, the Potency is reported as inconclusive [inhibitor, single point]. `Cc1cccc(C(=O)N/N=C/c2ccc(OC3CSC3)cc2)c1` was tested, and the Potency was inconclusive [inhibitor, single point]. In the case of `N#C/C(=C\Nc1ccccc1SC(F)(F)F)c1nc(-c2ccccc2)cs1`, the Potency is reported as inconclusive [inhibitor, partial curve]. `COc1nccnc1NS(=O)(=O)c1ccc(NC(=S)NC(=O)/C=C/c2ccc(F)cc2)cc1` was tested, and the Potency was inconclusive [inhibitor, single point]. For `COc1ccc(Cn2c(O)c(C=Nc3ccccc3)c3ccccc3c2=O)cc1`, the Potency was inconclusive [inhibitor, full curve]. In the case of `CCN(CC)CCCN1C=C2C(=O)C(C)(OC(=O)C3CCCC3)C(=O)C=C2C=C1c1ccsc1` (centres undefined), the Potency is reported as inconclusive [inhibitor, partial curve, poor fit]. In the case of `COc1cccc(NC(=O)Nc2ccc(Cc3ccncc3)cc2)c1`, the Potency is reported as inconclusive [inhibitor, single point]. For `O=C1C(Cl)=C(N2CCC(C(=O)O)CC2)C(=O)c2ccccc21`, the Potency was active: 11.2 µM. With `O=C(NCc1ccc2c(c1)OCO2)c1ccc(C2SCC(=O)N2Cc2ccco2)cc1` (centres undefined) the Potency was “inactive”. For `COc1ccc(-c2cc(C(F)(F)F)n3nc(C)c(-c4ccccc4)c3n2)cc1OC`, the Potency was “inactive”. With `COC(=O)c1cc(NC(=O)Nc2cc(OC)ccc2OC)cc(C(=O)OC)c1` the Potency was inconclusive [activator, full curve, poor fit]. In the case of `Cn1c(CS/C(N)=N/N=C/c2ccccc2)c(Br)c(=O)n1-c1ccccc1`, the Potency is reported as inconclusive [inhibitor, single point]. In the case of `Cc1ccc(C)c(-n2c(-c3cccnc3)n[nH]c2=S)c1`, the Potency is reported as “inactive”. With `CCc1cccc(NC(=O)Cn2c(=O)n(CCCCCC(=O)NCc3ccc(F)cc3)c(=O)c3sccc32)c1` the Potency was inconclusive [inhibitor, partial curve, poor fit]. `O=C1C2C3C=CC(c4ccccc4)(C2C(=O)N1c1cccc(Cl)c1)C1C(=O)N(c2cccc(Cl)c2)C(=O)C31` (centres undefined) was tested, and the Potency was inconclusive [inhibitor, single point]. With `COc1ccccc1-c1cn[nH]c1-c1ccc(OCc2ccccc2F)cc1O` the Potency was inconclusive [inhibitor, partial curve]. With `c1ccc(C(c2ccccc2)N2CCN(c3nc4ccccc4n4cnnc34)CC2)cc1` the Potency was inconclusive [inhibitor, single point]. For `CC(C)N=c1scc(-c2cccs2)n1/N=C/c1ccc(O)c(O)c1O`, the Potency was inconclusive [inhibitor, partial curve]. `Fc1ccc(-c2cc3ncc4c(n3n2)-c2cc(Cl)ccc2OC4)cc1` was tested, and the Potency was inconclusive [inhibitor, single point]. With `CN(C)C(=O)c1ccc(NC(=O)c2ccccc2Sc2ccccc2C#N)cc1` the Potency was inconclusive [inhibitor, single point]. For `Cc1[nH]nc(-c2ccc(O)cc2O)c1-c1ccc(Cl)cc1`, the Potency was inconclusive [activator, full curve, poor fit]. For `COc1ccc(CCC(=O)NCc2cn3ccccc3n2)cc1`, the Potency was “inactive”. `CC(=O)Nc1ccc2c(c1)C(C)(C)C(C)N2C` (centres undefined) was tested, and the Potency was inconclusive [activator, partial curve, poor fit]. For `N#CC1=C2SC=C(c3ccc(Br)cc3)N2CCCC1=O`, the Potency was inconclusive [inhibitor, single point]. For `O=C(c1cc(F)ccc1F)C1CCCN(C(=O)c2ccco2)C1` (centres undefined), the Potency was inconclusive [inhibitor, single point]. For `COc1ccc(N(CC(=O)Nc2cc(OC)cc(OC)c2)S(=O)(=O)c2c(C)noc2C)cc1`, the Potency was inconclusive [inhibitor, full curve, poor fit]. With `CCn1nnnc1NCc1c(OC)ccc2ccccc12` the Potency was inconclusive [inhibitor, partial curve, poor fit]. In the case of `Cc1cc(C2=NNC(=Nc3ccc(S(=O)(=O)N4CCOCC4)cc3)SC2)c(C)n1CC1CCCO1` (centres undefined), the Potency is reported as inconclusive [inhibitor, full curve, poor fit]. `Cc1ccccc1NC(=O)/C=C/c1ccc([N+](=O)[O-])s1` was tested, and the Potency was inconclusive [inhibitor, partial curve]. With `OCCN1CNC(=S)NC1` the Potency was inconclusive [inhibitor, full curve, poor fit]. With `COc1ccc(CNC(=O)c2cc(-c3ccc(Br)s3)nc3ccccc23)c(OC)c1` the Potency was inconclusive [inhibitor, single point]. In the case of `CC(C)n1ncc2c(C(=O)O)cc(C3CC3)nc21`, the Potency is reported as “inactive”. With `COc1ccccc1NC(=O)CC1Sc2ccc(C(F)(F)F)cc2NC1=O` (centres undefined) the Potency was inconclusive [inhibitor, partial curve]. In the case of `CCOc1ccccc1CNC(=O)Cn1c(=O)c2cccn2c2ccc(F)cc21`, the Potency is reported as “inactive”. For `COc1ccc(Nc2nc3ccc(C)cc3nc2-n2nc(C)cc2C)cc1Cl`, the Potency was inconclusive [activator, full curve, poor fit]. `CCOC(=O)c1c(NC(=O)c2ccc(Br)o2)sc(C)c1CC` was tested, and the Potency was inconclusive [inhibitor, single point]. In the case of `CCNS(=O)(=O)c1ccc(NC(=O)Nc2cccc(C(F)(F)F)c2)cc1`, the Potency is reported as active: 25.1 µM. `N#Cc1ccc(C(=O)Nc2ccc3c(c2)N(C2CCCC2)C(=O)c2ccccc2S3)cc1` was tested, and the Potency was inconclusive [inhibitor, partial curve]. For `CCc1nn(CC(=O)Nc2ccc(N(CC)CC)cc2C)c(=O)c2cc3sccc3n12`, the Potency was inconclusive [activator, full curve, poor fit]. `CCOc1cc(/C=N/NC(=O)Cn2nc([N+](=O)[O-])cc2C)ccc1OCc1ccc(F)cc1` was tested, and the Potency was inconclusive [inhibitor, single point]. `S=c1[nH]cc(-c2ccc(Cl)cc2)n1Cc1ccccc1` was tested, and the Potency was inconclusive [inhibitor, single point]. `COc1ccccc1C(C[N+](=O)[O-])c1c[nH]c2ccccc12` (centres undefined) was tested, and the Potency was inconclusive [inhibitor, single point]. `Cc1cc([N+](=O)[O-])nn1CC(=O)Nc1cccc2nonc12` was tested, and the Potency was inconclusive [inhibitor, single point]. `CC(C)c1cccc2c([Si](C)(C)C)c3c(nc12)-c1cccc(=O)n1C3` was tested, and the Potency was “inactive”. For `CCN(CC)C(=O)c1sc2c(c1C)c(=O)n(-c1ccc(OC)cc1OC)c(=O)n2CC(=O)c1ccc(Cl)cc1`, the Potency was “inactive”. With `COc1ccc2nc3cccc(OC)c3nc2c1` the Potency was inconclusive [inhibitor, partial curve]. `Cc1ccc(Nc2nc(N)c([N+](=O)[O-])c(NCc3ccccc3)n2)cc1` was tested, and the Potency was inconclusive [inhibitor, partial curve, poor fit]. With `COc1cc(NS(=O)(=O)c2ccc(OC)c(C)c2C)c(OC)cc1Cl` the Potency was “inactive”. `CCN(CC)S(=O)(=O)c1ccc(C(=O)N2CC(=O)Nc3ccc(F)cc3C2c2ccccc2)cc1` (centres undefined) was tested, and the Potency was “inactive”.
